# Data taken from PubChem BioAssay AID504832 (National Center for Advancing Translational Sciences (NCATS), 2011).
# Screen size: about 310,000 compounds; about 18,000 (5.8%) were called active. Inconclusive results, whose numbers are uncertain, are shown with a selection of clear calls. Calls follow the shape of the dose curve; as a rule, active = well fitted inhibition curve with a large enough effect; inconclusive = small, poorly fitted or top-dose-only effect, or another doubt; inactive = no such curve, though single readings can be large or run the other way. No potency is given beside an inconclusive call; the fits are too rough.
# Experiment: Primary qHTS for delayed death inhibitors of the malarial parasite plastid, 48 hour incubation
# Details: P. falciparum luciferase growth in erythrocytes; series mostly up to 28.7 µM; activity change, negative = inhibition: at the top concentration
# Outline: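 Read-out is firefly luciferase luminescence from an integrated reporter in P. falciparum, so falling signal marks reduced parasite growth. Infected erythrocytes were at 2% hematocrit and 0.1% parasitemia (final) in Albumax-supplemented RPMI 1640.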
# % is scaled to controls: 0 for no effect and ±100 for the full control effect; potency is read from the fitted curve at half-maximal effect; tags tell the direction and shape of the fitted curve.
Compound,"activity change, negative = inhibition",Potency
CC(Oc1cccc(Cl)c1)C(=O)Nc1cc(=O)n(C)c(=O)n1C (stereo not drawn),inactive: -24.2%,–
Cc1ccc(S(=O)(=O)N(CC(=O)N/N=C/c2cccc(C)c2)c2cccc3cccnc23)cc1,–,"inconclusive [inhibitor, single point]"
CSCCC(NC(=O)c1ccccc1)C(=O)NCc1ccco1 (stereo not drawn),inactive: -2.04%,–
CCOC(=O)CSc1n[nH]c(NC(=O)c2cccc(C(F)(F)F)c2)n1,–,"inconclusive [inhibitor, full curve, poor fit]"
O=C(Cc1ccccn1)Nc1ccccc1,inactive: 14.7%,–
CCC(=O)N(c1nnc(SCC(=O)Nc2ccccc2Cl)s1)C1CC1,inactive: 1.1%,–
O=C(OCc1ccccc1F)c1ccc2c(c1)-c1ccccc1C2=O,–,"inconclusive [inhibitor, single point]"
CCOc1ccc2nc(NCCNC(=O)CC)c(C#N)cc2c1,–,"inconclusive [inhibitor, single point]"
S=C1NC2(CCCC2)Nc2ccccc21,inactive: 21.9%,–
Cc1nc(N/N=C/c2ccc(O)cc2O)cc(N2CCOCC2)n1,–,"inconclusive [inhibitor, partial curve]"
COc1ccc(OC)c(C(=O)c2ccc(Cl)cc2)c1,inactive: 97.3%,–
O=C(NNc1nc(N2CCOCC2)nc(N2CCOCC2)n1)Nc1ccc(Cl)cc1,–,"inconclusive [inhibitor, full curve, poor fit]"
CCOc1cc(-c2nc3c(C)cccn3c2NCC2CCCO2)ccc1O (stereo not drawn),–,"inconclusive [inhibitor, single point]"
CC1(C)CC(NC(=O)C2CCC(=O)N(Cc3ccccc3F)C2)CC(C)(C)C1 (stereo not drawn),–,"inconclusive [inhibitor, partial curve, poor fit]"
Cc1cc(C)cc(NC(=O)CSc2nc3c(c(=O)n2C)SC(C)C3)c1 (stereo not drawn),–,"inconclusive [inhibitor, partial curve]"
Cc1ccsc1C(=O)N(c1nc2ccccc2s1)c1c(C)cccc1C,–,active: 11.7 µM
COC(=O)c1cc(CNC(=O)c2ccc(N3CCCC3)c([N+](=O)[O-])c2)ccc1OC,–,"inconclusive [inhibitor, partial curve, poor fit]"
COc1ccc(CCNC(=O)c2cnn(-c3ccc(C)c(C)c3)c2NC(=O)c2ccco2)cc1OC,inactive: -27.3%,–
Cc1ccc(NC(=O)c2ccc(S(=O)(=O)N3CCC(C)CC3)cc2)nc1,–,"inconclusive [inhibitor, partial curve]"
Cc1ccc(C(=O)N/C(=C/c2ccccc2F)C(=O)NCCCn2ccnc2)cc1,inactive: -15.7%,–
COCCNC(=O)CSc1nc2ccc(N3CCOCC3)cc2c(=O)n1CCc1ccccc1,inactive: 0%,–
Cc1cccn2c(=O)c3cc(C(=O)NCC4CCCO4)c(=N)n(Cc4ccc(F)cc4)c3nc12 (stereo not drawn),–,active: 9.28 µM
CCCCn1c(N)c(N(CCC(C)C)C(=O)COC(=O)c2sccc2C)c(=O)[nH]c1=O,–,"inconclusive [inhibitor, single point]"

Compound,"activity change, negative = inhibition",Potency
Cc1ccn2c(c1)nc(=O)c1cc(S(=O)(=O)N3CCCCC3)ccc12,–,"inconclusive [inhibitor, partial curve]"
COCCCn1c(SC(C)C(=O)Nc2c(C)n(C)n(-c3ccccc3)c2=O)n[nH]c1=O (stereo not drawn),–,"inconclusive [inhibitor, single point]"
Cc1ccc(C(C)C)c(OCC(=O)N/N=C2\CC(=O)CC(C)(C)C2)c1,–,"inconclusive [inhibitor, single point]"
COCCNc1nc2nonc2nc1N(C)Cc1ccc(C)cc1,–,"inconclusive [inhibitor, single point]"
CNS(=O)(=O)c1ccc(NC(=O)C2CC(=O)N(c3ccc(Cl)cc3)C2)cc1 (stereo not drawn),inactive: -7.43%,–
O=C(c1cc(COc2cccc(C(F)(F)F)c2)on1)N1C[C@@H]2CCC[C@H]1C2,–,"inconclusive [inhibitor, single point]"
CCc1ccc(C(=O)NNC(=O)c2n[nH]c(=O)c3ccccc23)cc1,–,"inconclusive [inhibitor, single point]"
CCOC(CNC(=O)Cn1nc(C)c2ccccc21)OCC,inactive: -7.33%,–
Cc1ccc(S(=O)(=O)N(C)C)cc1NC(=O)CN1CCN(Cc2ccccc2)CC1,inactive: 3.33%,–
O=[N+]([O-])c1ccc(COn2nnc3ccccc32)cc1,inactive: 21.2%,–
CCOc1ccc(Nc2nc(N)c([N+](=O)[O-])c(N3CCN(CC)CC3)n2)cc1,–,"inconclusive [inhibitor, partial curve, poor fit]"
CCOc1ccc2nc3c(cc2c1)CN(CCOC)C(=NCCOC)S3,–,"inconclusive [inhibitor, single point]"
CCN(C(=O)COC(=O)/C=C/c1ccc(S(=O)(=O)N2CCc3ccccc32)cc1)C1CCS(=O)(=O)C1 (stereo not drawn),–,"inconclusive [inhibitor, partial curve, poor fit]"
COCCN(C(=O)CN1CCc2ccccc2C1)c1c(N)n(Cc2ccccc2)c(=O)[nH]c1=O,–,"inconclusive [inhibitor, partial curve, poor fit]"
CN(C)S(=O)(=O)c1cccc(COC(=O)c2ccc(Cl)cc2O)c1,–,"inconclusive [inhibitor, single point]"
CCOc1ccc(N(CC(=O)NCCSCc2ccccc2Cl)S(C)(=O)=O)cc1,inactive: -6.34%,–
Cc1cc(Cl)c(Cl)cc1S(=O)(=O)NCCCn1ccnc1,–,"inconclusive [inhibitor, partial curve, poor fit]"
COc1ccc(C(=O)Nn2c(SCC(=O)NCc3ccco3)nc3ccccc3c2=O)cc1,inactive: 5.76%,–
CCOC(=O)NC1(NCc2ccccc2)Oc2ccccc2O1,–,"inconclusive [inhibitor, partial curve, poor fit]"
Cc1ccn2c(/C=N/OCc3cccc(F)c3)c(-c3ccc(Cl)cc3)nc2c1,–,"inconclusive [inhibitor, partial curve, poor fit]"
O=C(Nc1ccnn1C1CCN(CCCC2CCCC2)CC1)c1ccccc1,–,"inconclusive [inhibitor, single point]"
COc1ccc(Cl)cc1NC(=O)CN(C)C(=O)c1cc2c(s1)CCC(C)C2 (stereo not drawn),–,"inconclusive [inhibitor, single point]"
O=C(NCCN1C(=O)S/C(=C/c2cccnc2)C1=O)c1cccs1,–,"inconclusive [inhibitor, single point]"

Compound,"activity change, negative = inhibition",Potency
CC1CCN(c2c(NCC3CCC(C(=O)NCc4ccccc4Cl)CC3)c(=O)c2=O)CC1 (stereo not drawn),–,"inconclusive [inhibitor, single point]"
c1cc(Nc2ncnc3sc4c(c23)CCC4)ccn1,–,active: 1.65 µM
COc1ccc(-n2c(=O)c3c4c(sc3n(CC(=O)Nc3cc(C)[nH]n3)c2=O)CCC4)c(OC)c1,–,"inconclusive [inhibitor, single point]"
CC(C)(C)c1csc(N/N=C/c2cccnc2)n1,–,active: 13.1 µM
COC(=O)c1cn(C(=O)/C=C/c2ccc(OC)c(OC)c2)c2ccccc12,–,"inconclusive [inhibitor, single point]"
CC1CN(CC(O)COc2ccccc2C(C)(C)C)CC(C)O1 (stereo not drawn),–,active: 2.33 µM
CCOC(=O)C1=C(C(F)(F)F)Nc2ncnn2C1c1cc(OC)c(OC)cc1OC (stereo not drawn),–,"inconclusive [inhibitor, single point]"
CN(C)/C=C/c1c([N+](=O)[O-])c2ccc(O)cc2n1-c1ccccc1,–,"inconclusive [inhibitor, partial curve]"
c1csc(C2Nc3cccc4cccc(c34)N2)c1,–,"inconclusive [inhibitor, single point]"
Cc1ccc(NS(=O)(=O)c2ccc(-n3cccn3)cc2)cc1C,–,"inconclusive [inhibitor, single point]"
CC(=O)Nc1ccc(OCC(O)CN2C(C)CCCC2C)cc1 (stereo not drawn),inactive: 21.5%,–
CC(C)NC(=O)c1ccc(COc2cc(Cl)ccc2Cl)o1,–,"inconclusive [inhibitor, partial curve, poor fit]"
CCOC(=O)c1cc2c(nc1C)-c1cc(Cl)cc(Cl)c1OC2O (stereo not drawn),–,active: 6.57 µM
COc1cc(CN2CC(=O)N(c3cc(Cl)ccc3C)C2=S)cc(OC)c1OC,–,active: 2.62 µM
COc1ccc(N2C(=O)CS/C2=N\C(=S)Nc2ccccc2)cc1,–,"inconclusive [inhibitor, partial curve, poor fit]"
Cc1cc(C(=O)NC2CC2)c2ccccc2n1,–,"inconclusive [inhibitor, single point]"
CCOC(=O)/C(C#N)=N\Nc1ccc(S(=O)(=O)Nc2nc(C)cc(C)n2)cc1,inactive: 13.4%,–
Cc1ccc(-c2cc(C(=O)NCCCN3CCOCC3)no2)cc1,–,"inconclusive [inhibitor, single point]"
Cc1nccn1CC(O)Cn1c2ccccc2c2ccccc21 (stereo not drawn),–,"inconclusive [inhibitor, single point]"
CCOc1ccc(N(CC(=O)Nc2ccccc2C)S(=O)(=O)c2c(C)[nH]c(=O)[nH]c2=O)cc1,–,"inconclusive [inhibitor, partial curve]"
O=C(Nc1cccc(C(F)(F)F)c1)c1cc2c(=O)c3ccccc3oc2nc1C(F)(F)F,–,"inconclusive [inhibitor, partial curve, poor fit]"
COc1ccc(S(=O)(=O)NCc2ccc(C(=O)N3CCc4ccccc4C3)cc2)cc1,–,"inconclusive [inhibitor, single point]"
